# Among all 310,000 compounds or so, about 14,000 (4.5%) showed an effect of 50% or more. The effect is printed as a negative number. Some of the results follow.
# Target: human ether-à-go-go-related gene (hERG) potassium channel (human, UniProt Q12809)
# Assay: primary screen, population patch clamp on CHO cells stably expressing hERG
# 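Also: peak tail current of the secondary pulse compared with the same well before compound.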
# Sequence of human ether-à-go-go-related gene (hERG) potassium channel (Q12809 whole entry, looked up): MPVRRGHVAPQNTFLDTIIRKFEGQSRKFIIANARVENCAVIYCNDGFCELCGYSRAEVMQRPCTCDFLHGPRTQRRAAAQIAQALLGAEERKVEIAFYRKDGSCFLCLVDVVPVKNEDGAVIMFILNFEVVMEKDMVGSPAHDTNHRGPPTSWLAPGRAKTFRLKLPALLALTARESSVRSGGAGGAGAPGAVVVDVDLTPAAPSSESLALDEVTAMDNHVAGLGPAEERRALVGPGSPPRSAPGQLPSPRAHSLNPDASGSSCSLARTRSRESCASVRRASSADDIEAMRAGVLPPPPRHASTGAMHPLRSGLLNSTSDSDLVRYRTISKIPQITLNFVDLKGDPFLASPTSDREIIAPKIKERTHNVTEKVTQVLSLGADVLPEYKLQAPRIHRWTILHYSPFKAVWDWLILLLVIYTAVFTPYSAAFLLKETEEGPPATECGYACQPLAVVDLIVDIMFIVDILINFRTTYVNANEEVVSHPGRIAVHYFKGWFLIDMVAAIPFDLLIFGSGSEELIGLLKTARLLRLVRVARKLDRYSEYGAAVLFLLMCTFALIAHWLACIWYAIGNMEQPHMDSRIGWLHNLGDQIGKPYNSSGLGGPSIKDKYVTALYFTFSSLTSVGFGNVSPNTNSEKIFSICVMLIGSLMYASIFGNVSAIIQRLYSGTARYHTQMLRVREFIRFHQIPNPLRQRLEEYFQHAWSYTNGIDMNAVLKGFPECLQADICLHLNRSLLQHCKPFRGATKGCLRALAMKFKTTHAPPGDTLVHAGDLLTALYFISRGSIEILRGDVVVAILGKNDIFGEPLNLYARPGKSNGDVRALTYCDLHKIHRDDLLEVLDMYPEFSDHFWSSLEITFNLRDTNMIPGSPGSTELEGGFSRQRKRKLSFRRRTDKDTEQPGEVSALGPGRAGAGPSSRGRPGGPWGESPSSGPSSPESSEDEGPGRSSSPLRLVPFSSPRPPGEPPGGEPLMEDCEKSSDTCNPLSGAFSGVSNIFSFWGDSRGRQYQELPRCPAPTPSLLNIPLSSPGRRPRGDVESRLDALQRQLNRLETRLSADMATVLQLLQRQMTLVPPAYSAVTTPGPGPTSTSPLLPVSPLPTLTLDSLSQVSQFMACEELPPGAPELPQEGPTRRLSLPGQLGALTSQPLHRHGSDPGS
row,Compound,"hERG current change (%, negative = inhibition) at 10uM [%]"
1,COCCNC(=S)NNC(=O)c1ccc(-n2cnnn2)cc1,8.42
2,COC(=O)C1=C(C)N(Cc2ccccc2)C(=O)N[C@H]1c1ccco1,5.95
3,COC(=O)CNC(=O)Cn1ccc2ccccc2c1=O,10.8
4,Cc1cccc(C)c1Nc1nnc(SCC(=O)c2ccc3c(c2)NC(=O)CO3)s1,3.55
5,Oc1ccc(/C=N/N=C/c2ccc(O)cc2)cc1,23.5
6,O=C(NCc1ccc(-c2csnn2)cc1)c1cccs1,-6.3
7,COCCn1nnnc1C(c1cccc(OC)c1OC)N1CCN(C(=O)c2ccco2)CC1.Cl (stereo not shown),10.2
8,c1ccc(C2=NNC(=NCc3ccc4c(c3)OCO4)SC2)cc1,-29.9
9,CSc1ccccc1NC(=O)C1=CC(c2cccs2)=NS(=O)(=O)N1C,-18.6
10,C/C(CC(=O)Nc1ccc2c(c1)OCCO2)=N\NC(=O)COc1ccccc1C,2.39
11,CC1CCN(C(=O)CSc2nnc(CNC(=O)c3c(F)cccc3F)o2)CC1,18.3
12,S=c1[nH]nc(-c2ccncc2)n1/N=C/c1ccccc1,16.4
13,O=S(=O)(NC1CCCCC1N1CCCCC1)c1ccc(Cl)cc1 (stereo not shown),-5.16
14,CSCCC1COC(c2cccs2)=N1 (stereo not shown),7.81
15,CCCNC(=O)c1ccc(OC)cc1OC,15.4
16,COc1cc(/C=N/NS(=O)(=O)c2ccccc2)ccc1OS(=O)(=O)c1ccc(C)cc1,0.874
17,Nc1cc(N)nc(SCC(=O)Nc2cccc(S(=O)(=O)N3CCCCC3)c2)n1,4.03
18,CSCC[C@H](NC(=O)NC1CCCC1)C(=O)O,12.2
19,CCOc1cc(C(=O)Nc2cccc3ncccc23)cc(OCC)c1OCC,-7.69
20,CCOC(=O)c1nc2nc(-c3cccs3)cc(C(F)(F)F)n2n1,16.4
21,CC(=O)Nc1ccc(S(=O)(=O)N(C)CC(=O)OC(C)C(=O)NC2CCCCC2)cc1 (stereo not shown),4.23
22,O=C(CC1C(=O)NCCN1Cc1ccc(F)cc1)NC1CCCCCCC1 (stereo not shown),-8.27

row,Compound,"hERG current change (%, negative = inhibition) at 10uM [%]"
1,O=C(O)Cn1c2ccccc2c2ccccc21,30.5
2,COc1cccc(-c2csc(N3CCN(CC(=O)NNC(=O)c4ccco4)CC3)n2)c1,5.44
3,COc1cc2c(cc1OC)-c1cc(Nc3cccc(C)c3)nc(=O)n1CC2,-45.4
4,COc1cccc(/C=N/NC(=O)CN2CC(c3ccccc3)CC2=O)c1O (stereo not shown),-9.13
5,CCCS(=O)(=O)Nc1c(C(=O)OC)[nH]c2ccccc12,-12.5
6,Cc1[nH]c2ccccc2c1C(=O)C(=O)N(C)C1CCCCC1,-12.7
7,O=C(c1ccccc1)c1cccn1CC(=O)N1CCCCCC1,5.2
8,COC(=O)C(C)Sc1nc2c(c(=O)n(C)c(=O)n2C)n1CCC(C)C (stereo not shown),-24.3
9,O=C(COc1ncnc2scc(-c3ccc(Cl)cc3)c12)NCc1ccco1,-5.97
10,C/C(=N\OC(=O)Nc1ccccc1)c1ccc(C)cc1,-15.9
11,CCN1CCN(c2cc(C)c3cc(NC(=S)N4CCN(c5ccccc5)CC4)ccc3n2)CC1,-0.088
12,Cc1ccc(NC(=O)Cn2nnc(C(=O)NCc3ccccc3)c2N)cc1C,17
13,COc1cc(CC(=O)NCC(C)(C)N2CCOCC2)cc(OC)c1OC,20
14,O=S(=O)(Nc1ccc(Cl)cc1)c1ccc(N2CCOCC2)c(NC(=S)NCCN2CCOCC2)c1,-1.66
15,COc1ccc(NC(=O)CN2CCN(C(=O)C3CCCO3)CC2)c(OC)c1 (stereo not shown),-33
16,CN(C)S(=O)(=O)c1ccc(Cl)c(NC(=O)CN2CCN(Cc3ccc4c(c3)OCO4)CC2)c1,-64.6
17,O=C(CC1NCCc2ccccc21)Nc1ccccc1 (stereo not shown),0.246
18,CN1C(=O)c2cccc3c(S(N)(=O)=O)ccc1c23,2.25
19,N#CCSc1nnc(Cc2cccc3ccccc23)n1C1CCCCC1,-14.9
20,COc1ccc(NC(=O)CN(C)C(=O)CCCN2C(=O)c3cccc4cccc(c34)C2=O)cc1,-42.7
21,COc1ccc(NC(=O)c2ccc([N+](=O)[O-])s2)c([N+](=O)[O-])c1,-2.64
22,CCc1ccc(-c2nc(CN3CCC(C(=O)NCc4ccc(F)cc4)CC3)c(C)o2)cc1,-50.5

row,Compound,"hERG current change (%, negative = inhibition) at 10uM [%]"
1,CCOCc1cnc(C)nc1NCC(=O)c1c(C)[nH]c2cc(C)ccc12,5.35
2,S=C(NCc1cccs1)Nc1cccc2ccccc12,7.98
3,Cc1[nH+]csc1CCOC(=O)C1C2CC3CC(C2)CC1C3.[Cl-] (stereo not shown),-3.76
4,CCOC(=O)c1cc2c(C)n(-c3ccc(N(C)C)cc3)c(C)c2cc(C(=O)OCC)c1=O,6.08
5,COC(=O)Cn1c(CCS(=O)(=O)c2ccc(Cl)cc2)nc2ccccc21,-9.61
6,CCn1cc(C(=O)NCCCN2CCCC(C)C2)c(=O)c2cc(S(=O)(=O)N3CCOCC3)ccc21 (stereo not shown),14.6
7,Cc1ccc(NC(=O)Nc2ccno2)cc1,17.8
8,CCCSc1nc2sc3c(c2c(=O)[nH]1)CC(C)CC3 (stereo not shown),27.3
9,COC(=O)c1sc(N(C)C)c(C#N)c1-c1ccccc1,11.7
10,O=C(CCc1ccc(S(=O)(=O)NCc2ccccc2)cc1)NCc1ccc2c(c1)OCO2,-6.93
11,CCCCC(=O)Nc1ccccc1Oc1ccccc1,19.4
12,COc1ccc(OC)c(/C(O)=C/C(=O)C(=O)Nc2ccccc2OC)c1,6.16
13,CN(C(=O)c1ccc(NC(=O)Cc2cccc(NC(=O)C3CCN(C(=O)C4CC4)CC3)c2)cc1)C1CCCC1,10.8
14,CCN(CC(=O)NCc1ccc(Cl)cc1)C(=O)CSc1ccccc1F,-19.3
15,COc1cccc(NC(=O)C2CCCC2)c1,13.2
16,Cc1nn(Cc2ccccc2Cl)c(C)c1NC(=O)c1noc(C(C)C)c1[N+](=O)[O-],-5.07
17,CCn1c(C)nnc1SCC(=O)Nc1ccc(C(C)=O)cc1,11.5
18,COc1ccccc1/C=C/C=N/NC(=O)c1cc(-c2ccc(C)o2)[nH]n1,-5.24
19,O=C(CCN1CCOCC1)NNC(=O)Nc1cccc([N+](=O)[O-])c1,15.2
20,COc1ccc(CCNC(=O)C2CCN(S(=O)(=O)c3ccc(C)cc3)CC2)cc1OC,2.66
21,COc1cc(-n2c(=O)c3ccccc3n(Cc3cccc(C)c3)c2=O)cc(OC)c1OC,23.3
22,CN1CCN(S(=O)(=O)c2cccc(C(=O)Nc3cc(C(F)(F)F)ccc3N3CCCC3)c2)CC1,-1.41

row,Compound,"hERG current change (%, negative = inhibition) at 10uM [%]"
1,Cn1nc(C(=O)OCC(=O)NC2CCS(=O)(=O)C2)c2ccccc2c1=O (stereo not shown),12.8
2,COc1ccc(CCN(C)C(=O)c2cccc(S(=O)(=O)NCc3ccccc3)c2)cc1OC,-3.65
3,O=C(Nc1ccc(NC(=S)NC(=O)C(c2ccccc2)c2ccccc2)cc1)c1ccccc1,3.58
4,CSc1ncc(C(=O)Nc2ccc(C)cc2C)c(C)n1,24.4
5,Cc1nnc2c(NCCC(C)C)nc3ccccc3n12,11.7
6,CCOc1cc(NC(=O)c2ccccc2OC)c(OCC)cc1NC(=O)c1ccccc1,21.5
7,O=c1[nH]c(=O)n(Cc2ccco2)c2c1C(C(F)(F)F)(C(F)(F)F)N=C(CCc1ccccc1)N2,7.87
8,CCN1CCN(C(c2cccc(OC)c2OC)c2nnnn2Cc2ccco2)CC1.Cl (stereo not shown),14
9,Cc1cc(NC(=O)COC(=O)c2cc(S(=O)(=O)N(C)C)ccc2Cl)no1,13.3
10,CC(C)(C)NCc1ccccc1OCc1cccs1.Cl,6.17
11,CC(C)(C)OC(=O)N1CCC(C(=O)N[C@@H](Cc2ccccc2)C(=O)O)(c2ccccc2)CC1,-0.216
12,CCOC(=O)Nc1ccc2c(c1)N(C(=O)CCN1CCN(C)CC1)c1ccccc1S2.Cl,-15.2
13,CCC1(C)Cc2ccccc2-c2nc(NCCCO)n(C)c(=O)c21 (stereo not shown),-6.75
14,Clc1ccccc1-c1ncc2ccccn12.O=C(O)C(=O)O,0.632
15,COc1ccccc1/C=C1\NC(=S)N(CC2CCCO2)C1=O (stereo not shown),-18.3
16,O=C(CCc1nc(-c2ccccc2F)no1)NCc1ccco1,-8.57
17,Cc1ccc2nc(N3CCCCC3)c(C=O)c(=O)n2c1,4.68
18,Cc1ccc(C)c(OCC(=O)O/N=C(\N)c2cccc([N+](=O)[O-])c2)c1,-0.423
19,CCOC(=O)c1ccc(NCn2c(=O)oc3ccccc32)cc1,-14.5
20,COc1ccc(NC(=O)CCc2nnc3ccc(N4CCC(C)CC4)nn23)cc1,-22.9
21,Cc1cc(C(=O)OCC(=O)Nc2nccs2)c2ccccc2n1,1.22
22,O=C(Oc1ccccc1)c1ccc(NC(=O)c2ccco2)cc1,9.26

# Reference: PMC4336329 (PLoS ONE, 2015)
